The text below walks through data of PMC9911399, “Two distinct binding modes provide the RNA-binding protein RbFox with extraordinary sequence specificity”.

Positions count from the first letter of the chain named. Some of the results follow.

B1: ACAAUCU (DNA:RNA)
RNA: GGGAGACCGGAAUUCAGAUUGUCCACAAUCUUUAAAUCCCGUCGUAGCCACCA
DNA 1: CAATCTGAATTCCGGTCTCCC
DNA 2: TGGTGGCTACGACGGGATT
B2: UGCGAAG (DNA:RNA)
RNA: GGGAGACCGGAAUUCAGAUUGUCCUGCGAAGUUAAAUCCCGUCGUAGCCACCA
DNA 1: CAATCTGAATTCCGGTCTCCC
DNA 2: TGGTGGCTACGACGGGATT
B3: UGACCCG (DNA:RNA)
RNA: B2 RNA with C27A, G28C, A29C, A30C
DNA 1: CAATCTGAATTCCGGTCTCCC
DNA 2: TGGTGGCTACGACGGGATT
B4: UAACUAC (DNA:RNA)
RNA: B1 RNA with A25U, C26A, A28C, C30A, U31C
DNA 1: CAATCTGAATTCCGGTCTCCC
DNA 2: TGGTGGCTACGACGGGATT
B5: CCAAGUC (DNA:RNA)
RNA: B1 RNA with A25C, U29G, C30U, U31C
DNA 1: CAATCTGAATTCCGGTCTCCC
DNA 2: TGGTGGCTACGACGGGATT
B6: UACUAGA (DNA:RNA)
RNA: B2 RNA with G26A, G28U, A30G, G31A
DNA 1: CAATCTGAATTCCGGTCTCCC
DNA 2: TGGTGGCTACGACGGGATT
B7: AUCAAGG (DNA:RNA)
RNA: B2 RNA with U25A, G26U, G28A, A30G
DNA 1: CAATCTGAATTCCGGTCTCCC
DNA 2: TGGTGGCTACGACGGGATT
B8: CUAUGCG (DNA:RNA)
RNA: B1 RNA with A25C, C26U, A28U, U29G, U31G
DNA 1: CAATCTGAATTCCGGTCTCCC
DNA 2: TGGTGGCTACGACGGGATT
B9: CAGGUGA (DNA:RNA)
RNA: B1 RNA with A25C, C26A, A27G, A28G, C30G, U31A
DNA 1: CAATCTGAATTCCGGTCTCCC
DNA 2: TGGTGGCTACGACGGGATT
B10: UGGGGCC (DNA:RNA)
RNA: B2 RNA with C27G, A29G, A30C, G31C
DNA 1: CAATCTGAATTCCGGTCTCCC
DNA 2: TGGTGGCTACGACGGGATT
B11: ACCCCGU (DNA:RNA)
RNA: B1 RNA with A27C, A28C, U29C, C30G
DNA 1: CAATCTGAATTCCGGTCTCCC
DNA 2: TGGTGGCTACGACGGGATT
B12: GAGGAGC (DNA:RNA)
RNA: B2 RNA with U25G, G26A, C27G, A30G, G31C
DNA 1: CAATCTGAATTCCGGTCTCCC
DNA 2: TGGTGGCTACGACGGGATT
B13: CCCCCAC (DNA:RNA)
RNA: B2 RNA with U25C, G26C, G28C, A29C, G31C
DNA 1: CAATCTGAATTCCGGTCTCCC
DNA 2: TGGTGGCTACGACGGGATT
B14: GGCUGCC (DNA:RNA)
RNA: B2 RNA with U25G, G28U, A29G, A30C, G31C
DNA 1: CAATCTGAATTCCGGTCTCCC
DNA 2: TGGTGGCTACGACGGGATT
B15: UCUUGUU (DNA:RNA)
RNA: B1 RNA with A25U, A27U, A28U, U29G, C30U
DNA 1: CAATCTGAATTCCGGTCTCCC
DNA 2: TGGTGGCTACGACGGGATT
B16: UUUCGUU (DNA:RNA)
RNA: B1 RNA with A25U, C26U, A27U, A28C, U29G, C30U
DNA 1: CAATCTGAATTCCGGTCTCCC
DNA 2: TGGTGGCTACGACGGGATT
B17: GGCCGUC (DNA:RNA)
RNA: B2 RNA with U25G, G28C, A29G, A30U, G31C
DNA 1: CAATCTGAATTCCGGTCTCCC
DNA 2: TGGTGGCTACGACGGGATT
B18: GCAUUGA (DNA:RNA)
RNA: B1 RNA with A25G, A28U, C30G, U31A
DNA 1: CAATCTGAATTCCGGTCTCCC
DNA 2: TGGTGGCTACGACGGGATT
B19: GAUUCAA (DNA:RNA)
RNA: B2 RNA with U25G, G26A, C27U, G28U, A29C, G31A
DNA 1: CAATCTGAATTCCGGTCTCCC
DNA 2: TGGTGGCTACGACGGGATT
B20: GUCCGAG (DNA:RNA)
RNA: B2 RNA with U25G, G26U, G28C, A29G
DNA 1: CAATCTGAATTCCGGTCTCCC
DNA 2: TGGTGGCTACGACGGGATT
B21: GCCGAUU (DNA:RNA)
RNA: B2 RNA with U25G, G26C, A30U, G31U
DNA 1: CAATCTGAATTCCGGTCTCCC
DNA 2: TGGTGGCTACGACGGGATT
B22: UAACAGU (DNA:RNA)
RNA: B1 RNA with A25U, C26A, A28C, U29A, C30G
DNA 1: CAATCTGAATTCCGGTCTCCC
DNA 2: TGGTGGCTACGACGGGATT
B23: ACGGAGU (DNA:RNA)
RNA: B1 RNA with A27G, A28G, U29A, C30G
DNA 1: CAATCTGAATTCCGGTCTCCC
DNA 2: TGGTGGCTACGACGGGATT
B24: GUCACUA (DNA:RNA)
RNA: B1 RNA with A25G, C26U, A27C, U29C, C30U, U31A
DNA 1: CAATCTGAATTCCGGTCTCCC
DNA 2: TGGTGGCTACGACGGGATT
B25: UGGUCGC (DNA:RNA)
RNA: B2 RNA with C27G, G28U, A29C, A30G, G31C
DNA 1: CAATCTGAATTCCGGTCTCCC
DNA 2: TGGTGGCTACGACGGGATT
B26: AUUAAGG (DNA:RNA)
RNA: B1 RNA with C26U, A27U, U29A, C30G, U31G
DNA 1: CAATCTGAATTCCGGTCTCCC
DNA 2: TGGTGGCTACGACGGGATT
B27: CGGGAAU (DNA:RNA)
RNA: B2 RNA with U25C, C27G, G31U
DNA 1: CAATCTGAATTCCGGTCTCCC
DNA 2: TGGTGGCTACGACGGGATT
B28: UCCCCCU (DNA:RNA)
RNA: B1 RNA with A25U, A27C, A28C, U29C
DNA 1: CAATCTGAATTCCGGTCTCCC
DNA 2: TGGTGGCTACGACGGGATT
B29: GGGGGAU (DNA:RNA)
RNA: B2 RNA with U25G, C27G, A29G, G31U
DNA 1: CAATCTGAATTCCGGTCTCCC
DNA 2: TGGTGGCTACGACGGGATT
B30: UAAGUCG (DNA:RNA)
RNA: B1 RNA with A25U, C26A, A28G, U31G
DNA 1: CAATCTGAATTCCGGTCTCCC
DNA 2: TGGTGGCTACGACGGGATT
B31: GGCUCGG (DNA:RNA)
RNA: B2 RNA with U25G, G28U, A29C, A30G
DNA 1: CAATCTGAATTCCGGTCTCCC
DNA 2: TGGTGGCTACGACGGGATT

In this experiment the target is T1, RBFOX1 RRM RbFoxmut (Fox-RRM*) (Homo sapiens, UniProt Q9NWB1 109-208, R118D;E147R;N151S;E152T).
T1 sequence: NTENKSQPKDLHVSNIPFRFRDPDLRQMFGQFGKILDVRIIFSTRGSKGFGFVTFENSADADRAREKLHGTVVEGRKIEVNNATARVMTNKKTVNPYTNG
In words: EMSA; HiTS-Eq, 1 nM pool, 10 min; buffer printed only for the single-RNA assays: 10 mM Tris pH 7.5, 150 mM NaCl, 3.4 mM EDTA, 0.001% NP-40, 30 C. The following applies: tags: His6 N-terminal (pET28a); label: 5' 32P. Summed up: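 Purified wild-type or mutant RbFox RRM at increasing concentrations was equilibrated with 1 nM of 5′-radiolabelled RNA carrying 7 randomized nucleotides for 10 min in 50 µL. Unbound RNA was separated by 8% native PAGE and sequenced. Relative association constants came from read-count changes of each RNA species compared with the control reaction, normalised to the cognate motif.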
(In EMSA bound probe runs differently from free probe, usually more slowly.)
For B1, the binding signal is 0.0559 KA relative to UGCAUGU.
As to B2, the binding signal was 0.0938 KA relative to UGCAUGU.
The same measure for B3: 0.0559 KA relative to UGCAUGU.
The same measure for B4: 0.0617 KA relative to UGCAUGU; for B5: 0.0772 KA relative to UGCAUGU; for B6: 0.0942 KA relative to UGCAUGU.
The same measure for B7: 0.0887 KA relative to UGCAUGU; for B8: 0.116 KA relative to UGCAUGU.
On to B9, for which the binding signal was 0.114 KA relative to UGCAUGU.
Next, B10: 0.349 KA relative to UGCAUGU; B11: 0.121 KA relative to UGCAUGU; B12: 0.095 KA relative to UGCAUGU.
Next, B13: 0.0595 KA relative to UGCAUGU; B14: 0.179 KA relative to UGCAUGU; B15: 0.131 KA relative to UGCAUGU.
The same measure for B16: 0.106 KA relative to UGCAUGU; for B17: 0.123 KA relative to UGCAUGU.
Consider B18, for which the binding signal is 0.178 KA relative to UGCAUGU.
Next, B19: 0.0804 KA relative to UGCAUGU.
The same measure for B20: 0.129 KA relative to UGCAUGU; for B21: 0.07 KA relative to UGCAUGU; for B22: 0.0525 KA relative to UGCAUGU.
The same measure for B23: 0.15 KA relative to UGCAUGU.
For B24, the binding signal is 0.0913 KA relative to UGCAUGU.
The same measure for B25: 0.114 KA relative to UGCAUGU.
Take B26: the binding signal is 0.0814 KA relative to UGCAUGU.
The same measure for B27: 0.111 KA relative to UGCAUGU; for B28: 0.0643 KA relative to UGCAUGU.
Next, B29: 0.0726 KA relative to UGCAUGU; B30: 0.102 KA relative to UGCAUGU.
B31: the binding signal is 0.12 KA relative to UGCAUGU.
